Read counts are not given, so values of variants with three or more changes are uncertain.
B1: LINE1-full (parent)
chain: UACGUAGGUGGUUUUCCCCUGAUAGUGCUAAGGGGGCCUGGAAGUUUGGACUGGGCAGAGCUCAACACAGCGUGGCAAAGUGGCUGUGGCUAGACUGCCUCUCUGGAUUCCUCGUCACUCAGCAGGGCAUCUCUGAGAGAAAUGCC

Variants of: B1
Assay: self-cleavage, relative activity (ratio to wild type); higher = more cleavage; in vitro, sequencing; the parent is a self-cleaving ribozyme

| Variant | self-cleavage |
| --- | --- |
| UACGUAGGUGGUUUUCCCCUGAUAGUGCUAAGGGGGCCUGGAAGUUUGGACUGGGCAGAGCUCAACACAGCGUGGCAAUGUGGCUGUGGCUAGACUGCCUCUCUGGAUUCCUCGCCACUCAGGAGGGCAUCUCUGAGAGAAAUGCC | 1.53 |
| UACGUAGGUGGUUUUCCCCUGAUAGUGCUAAGGGGGCCUGGGAGUUUGGACUGGGGUGAGCCCAACACAGCGUGGCAAAGUGGCUGUGGCUAGACUGCCUCUCUGGAUUCCACGUCACUCAGCAGGGCAUCUCUGAGAGAAAUGCC | 0.04 |
| UACGUAGGUGGUUUUCCCCUGAUAGUGCUAAGGGGGCCUGGAAGUUUGGACCGGGCAGAGCUCAACGCAGCGAGGCAAAGUGGCUGUGGCUAUACUGCCUCUCUGGACUCCUCGUCACUCAGCAGGGCAUCUCUGAGAGUAAUGCC | 0 |
| UACGUAGGUGGUUUUCCCCUGAUAGUGCUGAGGGGGCCUGGAAGUUUGGACUGGGCAGAGCUCAACACAGCGUGGCAAAGUGGCUGUGGCUAGACUGCCUCUCUGGAUUCCUCGUCACUCAGCUGGGCAUCUCUGAGGGAAAUGCC | 1.78 |
| UACGUAGGUGGUUUUCCCCUGAUAGUGCUAAGGGGGCCUGGAGGUUUGGUCUGGGCAGAGCUCUAUACCGCGUGGUAAAGUGGCUGUGGCUAGACUGCCUCUCUGGAUUCCCCGUCACUCAGCAGGGCACCUCUGAGUGAAAUGCC | 0.02 |
| UACGUAGGUGGUUUUCCCCUGAUAGUGCUAAGGGGGCCUGGAAGUUUGGACUGGGCAGAGCUCAACACAGCGUGGCAAAGAGGCUAUGGCUAGACUGCCUCUCUGGAUUCCUCGCCACGCAGCAGGGCAUCUCUGAGAGAAAUGCC | 0.03 |
| UACGUAGGUGGCUUUCCCCUGACAGUGCUAAGGGGGCCUGGAAGUUUGGACUGGGCAGAGCUCAACACAGCGUGGCAAAGUGGCUGUGGCUAGACUGCCUCUCUGGAUUCCUCGUCGCUCAGCAGGGCAUCUCUGUGAGAAAUGCC | 1.79 |
| UACGUAGGUGGUUUUCCCCUGAUAGUGCUAAGGGGGCCUGGAAGUUUGGACUAGGCAGAGCUCAACACAGCGUGGCAAAGUGGCUGUGGCUAGACUGCCUCUCUGGAUUCCUCGUCACUCAGCGGGUCAUCUCUGAGAGAAAUGCC | 1.21 |
| UACGUAGGUGGUUUCCCCCUGAUAGUGCUAAGGGGGCCUGGAAGUUAGGACUGGGCAGAGCUCAACACAGCGUGGCAAAGUGGCUGUGGCUAGACUGCCUCUCUGGAUUCCUCGUCACUCAGCAGGGCAUCUCUGUGAGAAAUGCC | 1.61 |
| UACGUAGGUGGUUUUCCCCUGAUAGUGCUAAGGGGGCCUGGAAGUCUGGACUGGGCAGAGCUCAACACAGCGUGGCAAAGUGGUUGUGGCUAGACUGCCCCUCUGGAUUCCUCGUCACUCAGCAGGGCAUCUCUGAGAGGAAUGCC | 0.26 |
| UACGUAGGUGGUUCUCCCCUGAUAGUGCUAAGGGGGCCUGGAAGUUUGGACUGGGCAGAGCUCAACACAGCGUGGCAAAGUGGCUGAGGCUAGACUGCCUCUCUGGAUUCCUCGUCACUCAGCAGGGCAUCUCUGAGGGAAAUGCC | 0.28 |
| UACGUAGGUGGUUUUCCCCUGAUAGUGCUAAGGGGGCCUGGAAGUUUGGACUGGGCAGAGCUCAACACAGCGUGGCACAGUGGCUGUGGCUAGACUGCCUCUCUGGGUUCCUCGUCACUCUGCAGGGCAUCUCUGAGAGAAAUGCC | 2.76 |
| UACGUAGGUGGUUUUCCCCUGAUAGUGCUAAGGGGGCCUGGAUGUUUGGACUGGGCAGGGCACAACACAGCGUGGCAAAGUGGCUGUGGCUAGACUGCCUCUCUGGAUUCCUCGUCACUCAGCAGGGCAUCUCUGAGAGAAAUGCC | 0 |
| UACGUAGGUGGUUUUCCCCUGAUAGUGCUAAGGGGGCCUGGAAGUUUGGACUGGGCAAAGCUCAACACAGCGUGGCAAAGUGGCUGUGGCUAGACUGCCUCUCUGGGAUCUUCGUCACUCAGCAGGGCAUCUCUGAGAGAAAUGCC | 0 |
| UACGUAGGUGGUUUUCCCCUGAUAGUGCAAAGGGGGCCUGGAAGUCUGGACUGGGCAGAGCCCAACACAGCGUGGCAAAGUGGCUGUGGCUAGACUGCAUCUCUGGAUUCCUCGUCACUCAGCAGGGCAUCUCUGAGAGAAAUGCC | 0.13 |
| UACGUAGGUGGUUUUCCCCUGAUAGUGCUAAGGGGGCCUGGAAGUUUGGACUGGGCAGAGCUCUACACAGCGUGGCAAAGUGGCUGUGGCUAGGCUGCCCCUCUGGAUUCCUCGUCACCCAGCAGGGCAUCUCUGAGAGAAAUGCC | 0 |
| UACGUAGGUGGUUCUCCCCUGAUAGUGCUAAGGGGGCCUGGAGGUUUGGACUUGGCAGAGCUCAACACAGCGUGGCAAAGUGGCUGUGGCUAGACUGCCUCUCUGGAUUCCUCGUCACUCAGCAGGGCAUCUCUGAGAGAAAUGCC | 1.59 |
| UGCGUAGGUGGUUUUCCCCUGAUAGUGCUAAGGGGGCCUGGAAGUUUGGACUGGGCUGAGCUCAACACAGCGUGGCAAAGUGGCUGUGGCUAGGCUGCCUCUCUGGAUUCCUCGUCACUCAGCAGGGCAUCUCUGAGAGAAAUGCC | 0.25 |
| UACGUAGGAGGUUUUCCCCUGAUAGUGCUAAGGGGGCCUGGAAGUUUGGACUGGGCAGAGCUCAACACAGCGAGGCUAAGUGGCUGUGGCUAGACUGCCUCUCUGGAUUCCUCGUCACUCAGCAGGGCAUCUCUGAGAGAAAUGCC | 1.53 |
| UACGUGGGUGGUUUUCCCCUGACAGUGCUAAGGGGGCCUGGAAAUUUGGACUGGGCAGAGCUCAACACAGCGUGGCAAAGUGGCUGUGGCUAGACUGCCUCUCUGGAUUCCUCGUCACUCAGCAGGGCAUCUCUGAGAGAAAUGCC | 1.05 |

| Variant | self-cleavage |
| --- | --- |
| UACGUAGGCGGUCUUCCCCUGAUAGUGCUAAGGGGGUCUGGAAGUUCGGACUGGGCAGAGCUCAACACAGCGUGGCAAAGUGGCUGUGGCUAGACUGCCUCUCUGGAUCCCUCGUCACUCAGCAGGGCAUCUCUGAGAUAAAUGCC | 1.31 |
| UACGUAGGUGGUUUUCCCCUGAUAGUGCUAAGGGGGCCUGGAAGUUUAGACUGGGCAGAGCUCAACACAGCGUGGCAAAGUGGCUGGGGCUAGACUGCCUUUCUGGAUUCCUCGUCACUCAGCAGGGCAUCUCUGAGAGGAAUGCC | 0.15 |
| UACGUAGGAGGUUUUCCCCUGAUAGUGCUAAGGGGGCCUGGAAGUUUGGACUGGGCUGAGCCCAACACAGCGUGGCAAAGUGGCUGUGGCUAGACUGCCUCUCUGGAUUCCUCGUCACUCAGAAGGGCAUCUCUGAGAGAAAUGCC | 0.09 |
| UACGUAGGUGGUUUUCCCCUGAUAGUGCUAAGGGGGCCUGGAAGUUUGGACUGGGCAGAGCUCAGCACAGCGUGGCAAAGUGGCCGUGGCUAGACUGCCUCUCUGGAUUCCUCGUCACUCAGCAGGGCGUCUCUGAGAGAGAUGCC | 0 |
| UACGUAGGUGGUUUUCCCCUGAUAGCGCUAAGGGGGCCUGGAAGUUUGGACUGGGCAGAGCUCAACACAGCGUGGCAAAGUGGCUGAGGCUAGACUGCCUCUCUGGAUUCCUCGUCACUCAGCGGGGCAUCUCUGAGAGAAAUGCC | 0.08 |
| UACGUAGGUGGUUUUCCCCUGAUAGUGCUAGGGGGGCCUGGAAGUUUGGACUGGGCAGAGCUCAACACAGCGUGGCAAAAUGGCUGUGGCUAGACUGCCUCUCUGGAUUCCUCGUCUCUCAGCAGGGCAUCUCUGAGAGAAAUGCC | 2 |
| UACGUAGGUGGUUUUCCCCUGAUAGAGCUAAGGGGGCCUGGAAGUUUGGACUGGGCAGAGCUCGACACAGCGUGGCAAAGUGGCUGUGGCUAGACUGCCUCUCUGGAUCCCUCGUCACUCAGCAGGGCAUCUCUGAGAGAAAUGCC | 0.41 |
| UACGUAGGUGGUUUUCCCCUGAUAGUGCUAAGGGGGCCUGGAAGUUUGGAUUGGGCAGAGCACAACUCAGCGUGGCAAAGUGGCUGUGGCUUGACUGCCUCUCUGGACUCCUCGUCACUCAGCAGGGCAUCUCUGAGAGAAGUGCC | 0.02 |
| UACGUAGGUGGUUUUCCCCUGAUAGUGCUAAGGGGGCCUGGAAGUUUGGGCUGGGCAGAGCUCAACACUGCGUGGCAAAGUGGCUGUGGCUAGACUGCGUCUCAGGAUUCCUCGUCACUCAGCAGGGCAUCUCUGAGAGAAAUGCC | 0.09 |
| UACGUAGGUGGUUUCCCCCUGAUAGUGCUAAGGGGGCCUGGUAGUUUGGACCGGGCAGAGCUCAACACAGCGUGGCAAAGUGGCUGUGGCUAGACUGCCUCUCUGGAUUCCUCGUCACUCAGCAGGGCUUCUCUGAGAGAAAUGCC | 1.58 |
| UACGUAGGUGGUUUCCCCCUGAUGGUGCUAAGGGGGCCUGGAAGCUUGGACUGGGCAGAGCUCAACACAGCGUGGCAAAGUGGCUGUGGCUAGACUGCCUCUCUGGAUUCCUCGUCACUCAGCGGGGCAUCUCUGAGAGAAAUGCC | 0 |
| UACGUAGGUGGUUUUCCCCUGAUGGUGCUAAGGGGGCCUGGAAGUUCGGACAGGGCGGAGCUCAACACAGCGUGGCAAAGUGGCUGUGGCUAGACUGCCUCUCUGGAUUCCUCGUCACUCAGCAGGGCAUCUCUGAGAGAGAUGCC | 0.92 |
| UACGUAGGUGGUAUUCCCCUGAUAGUGCUAAGGGGGCCUGGAAGUUUGGACUGGGCAGAGCUCAACACAGCGUGGCAAAGUGGCUGUGGCUAGACUGCCUCUCUGGACUCCUCGUCACCCAGCAGGGCAUCUCUGAGAGAAAUGCC | 0.74 |
| UACGUAGGUGGUUUUCCCCUGAUAGUGCUAAGGGGGCCUGGAAGUUUGGACUGGGCAGAGCUCAACACAGCGUGGCAAAGUGGCUGUGGCUAGACUGCCUCCCUGGAUUCCUCGUCACUCAACAGGGCAUCUCCGAGAGAGAUGCC | 1.45 |
| UACGUAGGUGGUUUUCCCCUGAUAGUGCUAAGGGGGCCUGGAAGCUUGGACUGGGCGGAGCUCAACACAGCGUGGCAAAGUGGCUGUGGCUAGACUGCCUCUCUGGAUACCUCGUCACUCAGCAGGGUAUCUCUGAGAGAAACGCC | 0.14 |
| UACGUGGGUGGUUUUCCCCUGAUAGUGCUAAGGGGGCCUGGAAGUUUGGACUGGGCAGAGCUCAACACAGCGUGGCAAAGUGGCUGCGGCUUGACUGCCUCUCUGGAUUCCUCGUCACUCAGCAGGGCAUCUCUGAGAGAAGUGCC | 0 |
| UACGUAGGUGGUUUUCCCCUGAUAGUGCUAAGGGGACCUGGAAGUUUGGACUGUGCAGAGCUCAACACAGCGUGGCAAAGUGGCUGUGGCUAGACUGCCUCUCUGGAUUCCUCGUCACACAGCAGGGCAUCUCUGAGAGAAAUGCC | 0.69 |
| UACGUAGGUGGUUUUCCCCUGAUAGUGCUAAGGGGGCCUGGAAGUUUAGUCUGGGCAGAGCUCAACACAGCGUGGCAAAGUGGCAGUGGCUAGACUGCCUCUCUGGAUUCCUCGUCACUCAGCAGGGCAUCUCUGAGAGAAAUGCC | 0.06 |
| UACGCAGGUGGUUUUCCCCUGAUAGUGCUGAGGGGGCCUGGAAGUUUGGACUGGGCAGAGCUCAACACAGCGUGGCAAAGUGGCUGUGGCUAGACUGCCUCUCUGGACUCCUCGUCACUCAGCAGGGCAUCUCUGAGAGAGAUGCC | 1.41 |
